Assay results published in the supplement of paper PMC3334620.
The full ranking holds about 33,000 sequences; the median of “E-score (-0.5 to 0.5)” is about -0.056, and the highest 2% start at about 0.38. The list shows a part of the results.

Target: Stb4 (UniProt P50104)
Test: PBM E-score (8-mer binding enrichment) (E-score (-0.5 to 0.5)); higher = stronger / more preferred TF binding; most listed sequences are background and not binding sites
Details: protein concentration: 200 nM; construct: GST-DNA-binding domain
Outline: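 PURExpress in vitro transcription/translation supplied GST-tagged yeast transcription factors, either full-length or DNA-binding domain. Applied at about 100-200 nM to universal all-10-mer Agilent arrays double-stranded by primer extension, the bound protein was detected with fluorescent anti-GST. E-scores, modified Wilcoxon-Mann-Whitney statistics, were given by the Universal PBM Analysis Suite to ungapped eight-base words pooled with their reverse complements after masliner normalisation.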

Sequence | PBM E-score
GCCCGAGA | 0.352
CCAAGCAC | -0.219
AAATAATG | -0.0388
CCGAATAC | 0.425
GGACGAAC | 0.0688
GCTAAGCA | -0.217
AACGTAGT | -0.206
ATATGGTA | -0.127
CACATTGA | -0.0562
CGTTGTAA | -0.0705
GTAAGATA | 0.0103
ACCCTGGC | -0.138
AAGCGCTT | -0.00971
CCGTATAC | 0.00392
CCGAGACA | 0.372
CATGGCCC | 0.13
ATCCGGTG | 0.397
ACTATTCA | -0.13
CGGTGCAC | 0.0103
CTATAGCC | -0.0273
TAGGTTAA | -0.0443
CAACCGCC | 0.081
CTCCAGAC | -0.128
GGGACAAA | 0.186
CGGTTCCC | 0.217

Sequence | PBM E-score
CTTATGTC | -0.0122
TCCGTTAA | 0.259
TGATAGCA | -0.132
CTGTCCGC | -0.105
AAATGATA | 0.112
ATGTAAAT | -0.136
GACAACCC | 0.135
GACTTTCA | -0.0727
AGCGGATG | 0.275
ATACACGG | 0.0939
CCGAAGGA | 0.36
ATTCAGAA | -0.241
AGAGCTAC | -0.19
CGGCACTC | 0.137
CACGATCC | 0.276
AGGGGCCC | -0.0968
GCACAAGC | -0.11
CTAATTAG | -0.155
CAAAGCCG | 0.191
GGGAATCA | 0.0543
TAAAGGCA | -0.124
ACAAAAGT | -0.116
AAGGGACG | -0.277
CGAGTAGA | -0.0104
ACAAAATC | 0.0505

Sequence | PBM E-score
ACTTGATG | -0.143
CCTTAAGG | -0.0347
CGCATACG | 0.0121
ATCAGTCC | -0.114
GGGTTGAA | 0.0353
ACCTGCGT | 0.0026
CGCTAGGA | -0.136
GATGGGGA | 0.0613
GAAGTAGC | 0.0639
AACCACAT | -0.111
GTGGCCAA | -0.203
GGCCTTTA | -0.156
TAGAGTAA | -0.182
GTTGGCAA | -0.109
AGATCAAG | -0.095
AAGGTTCG | 0.11
GCCTAACC | -0.0958
TATGTGAA | -0.257
CAAAGTCC | -0.128
GCACATAA | -0.234
CCCCTTCG | 0.0658
CAGCGCCG | 0.163
CAGCAGAC | -0.196
CGGAGAAA | 0.298
AACCTGCC | 0.0449

Sequence | PBM E-score
CCAGGTAC | -0.147
ACGTATCA | -0.234
CCGTGTCC | 0.188
AACTAATA | 0.0302
CCAGGTAA | -0.164
GTTCTGGA | -0.212
AAGAGTGC | -0.155
ACAAGTAT | -0.167
AGTGGTAT | -0.209
AATCGCCA | -0.242
TCCCGAAA | 0.432
TCAAGGAA | -0.186
AGACTTAC | -0.171
ATGCTCCG | 0.328
ACCACCCA | 0.0956
AATTTGGT | 0.113
ACAGGTAA | -0.167
AATGGATG | -0.173
AATGTTTC | 0.131
ACACAACA | -0.174
ATATCTCA | 0.0308
GAGGCTGA | -0.153
GGCGAGTA | 0.0183
GTGACTAA | -0.0958
GCCTAAGA | -0.182

Sequence | PBM E-score
GAGTCCGA | 0.214
ACCCACGA | -0.013
TACGAGTA | 0.0249
TCTCCTCA | -0.126
AAGTAAGC | -0.0584
CCGAGGTC | 0.424
ATCCTTAA | -0.184
GGAGTCTA | -0.0987
GATATAAC | 0.0636
GTGGGGGA | -0.251
CTTCCCAA | -0.191
CGATTGGC | -0.0806
ATCACCCG | 0.369
CTCCAGCC | -0.162
CTCGTCCC | -0.0171
ATTATTTG | -0.21
ACCTTTCG | 0.116
GTCTCTGA | -0.115
CGCTTTAA | -0.114
AATGTCAC | -0.0192
ATTCTGTC | -0.078
ACATAGCT | -0.17
TTGACCAA | -0.141
ACATGGCC | 0.0167
ACAACCTA | -0.112

Sequence | PBM E-score
CGTAACAA | 0.0686
ACGAGTCG | -0.101
CGAAGGAG | 0.039
ATAAACTA | -0.139
ACGTCCGC | 0.132
ACTCGAAA | -0.137
TACATCTA | -0.15
GAGAGACC | -0.122
ACAACCGT | -0.115
CGACGTTA | 0.088
ACTACGGC | -0.0239
CAAGCGGC | 0.0985
GACGCGGC | 0.0303
ACTTGACA | -0.05
CTCTTTAC | -0.0924
GTTGTCAA | -0.107
GCACATGA | -0.117
CCCGGTCA | 0.131
GGAATACC | 0.214
AGAAAACC | -0.00717
GCTATTAA | -0.108
TCACTTAA | -0.0915
AAGCCCCT | 0.0485
ATATTGAC | 0.0712
GTAATACA | -0.0668

Sequence | PBM E-score
ACCATTAG | -0.021
CTGTTCTC | -0.0405
CGACAAAG | 0.126
AAGTTTTC | 0.0553
ATTCCTGC | 0.0722
CGCGAACC | 0.166
CAAATCTA | -0.211
CCCTCGGC | 0.399
GAGTCTCC | 0.0629
GCAAACAC | -0.151
GAACCCGA | 0.338
CAGAACGC | -0.126
GCACTACC | -0.0127
AAAAGAAA | -0.0451
GCAATCCC | 0.19
GAATGAAC | -0.0152
AGGTAACA | -0.199
ACAGTCGA | -0.284
AAGCAGCG | -0.0524
AGTTCTGA | -0.16
ATTCCGGG | 0.353
AGGTAATC | -0.00217
CGCGTATC | 0.0553
ATAAGACA | -0.0364
CAACTTCA | -0.205

Sequence | PBM E-score
TGGGAACA | 0.00069
AAAGGGCA | -0.194
CTGCTTAC | -0.188
ACAACAGC | -0.0598
AGCCCACG | -0.0831
AAAGTCCT | 0.0233
ACGCAAAG | -0.156
GTGTCTAA | -0.208
ACGACTTG | -0.168
GTCCTATA | -0.205
CATGAAGA | -0.172
AAGGGAGT | -0.138
CGACGATA | 0.0643
AAATGCAA | -0.314
AACGTGGA | -0.218
AGACGAAG | -0.0901
CTTGAAAG | -0.157
CTATAGGC | -0.143
GCGCGAGC | -0.0587
CCACCGAG | 0.207
ACTTGTAT | -0.1
GGGCAACC | -0.0889
ACACTATG | -0.102
AGCTCAAG | -0.271
ATCAATCC | 0.067

Sequence | PBM E-score
CCGTCGAA | 0.0663
ACGAGGTA | -0.0352
AAATATTA | -0.0429
CCCCATAG | -0.101
GTGGACAC | -0.228
CATATTTC | 0.0406
CCGATTGC | 0.275
CAACAATG | -0.138
CGTTCCCA | -0.102
ATAGTCCA | -0.103
AGCATCAG | -0.171
CTGAGTTC | -0.0388
GGGGTGAC | -0.0263
CTCACTCC | 0.12
GCACGCGA | 0.0721
CTAAGTCC | -0.18
CCGCAAAC | 0.135
TACCCAAA | -0.0863
TCCATAGA | -0.0576
GTACACTA | -0.208
CCTGCCGA | 0.359
CTATGGCC | -0.223
CCCGAGGC | 0.388
ATGCCAAG | -0.177
ACGGGTTA | -0.041

Sequence | PBM E-score
CCAACTCG | 0.0513
CCCTGGAA | -0.118
AGCACGGA | 0.209
CGTTGTCC | 0.0365
ACACACCC | 0.254
ACGTATCC | 0.0505
TGGATAAA | 0.027
CCCGGGAC | 0.387
CTTGTGTC | -0.159
TCACAAAA | 0.115
CACATGGC | 0.00518
GATTAAAA | 0.0553
AGAAGACC | -0.103
AGGTTCAT | -0.128
CGTAACTC | -0.0106
CCGCGTGC | 0.119
CATACCAC | 0.0105
AGTCGCGA | -0.0992
TAGTGTGA | -0.167
AGCTATCC | 0.189
CTACACGC | -0.183
CTGTACTA | -0.0226
ACAAATGG | -0.293
AAGTTACA | -0.223
ACTTACTA | -0.187

Sequence | PBM E-score
ATACCCCA | 0.0396
CTTTCTAA | 0.00201
AAATCCCT | -0.178
CAAGATCA | -0.183
ACCCCACC | 0.289
AGGATCAA | 0.0557
ATAATCTG | -0.159
CGACTCAG | 0.0507
GTCGTTGA | -0.145
CCATTAGG | -0.324
GGCGGCCC | -0.0498
AACATTCA | -0.00804
CGAACGAG | 0.0473
CGAGAGAG | 0.116
AATACGAC | -0.114
AATCTGGA | -0.059
AGCGGCTC | 0.207
CCGGATAC | 0.409
AATACATC | 0.111
GGCCATAA | -0.083
CGGACCGA | 0.419
CCTTAAAC | -0.0937
CACCGCGG | 0.207
ACCTCACA | -0.0391
ACCTCGAG | -0.0838

Sequence | PBM E-score
CATTATTA | 0.0199
GCAAGGTA | -0.143
GGATACAA | 0.2
CCTATGAA | -0.165
CAGCCCCA | -0.286
GAGTCTCA | -0.0337
AGACATTA | 0.00299
TGGGGACA | -0.326
CAAAGGCG | -0.177
ATTGTGAA | -0.11
ATTTGTGC | -0.117
CCACCTGG | -0.328
CGTGGTAA | -0.189
ATGTTTCG | 0.2
CCCTTGAA | 0.0809
ATCCACCG | 0.0768
ACCGCTAT | -0.039
TAAGGAGA | -0.177
AACCCCTA | -0.303
GCCAGCGC | -0.101
ACAATTAC | -0.12
TCTAAGAA | 0.0163
ACTCGTAG | -0.202
AGACCGCG | -0.0609
AGAGATAG | -0.0326

Sequence | PBM E-score
GCCGGGCA | 0.174
ATACTTGA | -0.326
AAGGTACG | -0.0106
ACTTTGGG | -0.0552
GTGAATGA | -0.0497
CAGACTGC | -0.294
AGAGCCTG | -0.237
GCAATGCA | -0.0224
ACTGGTTG | 0.0369
GAAAATGC | -0.127
AGTCAGAC | -0.208
ATCAACGG | 0.0758
CCTATCAG | -0.123
CAGATACC | 0.0284
AGCCGATC | 0.313
AATGAATG | -0.0478
CCTCGGTC | 0.215
CTTAGAAC | -0.0637
CATTAGAG | -0.22
AGACTCAA | -0.0784
CTAAAACA | -0.159
ATGTCGAA | -0.0741
CATCCGGA | 0.406
ACCCACCA | -0.126
TACACTCA | -0.0369

Sequence | PBM E-score
GGGGCGGA | 0.294
ATTCCCGA | 0.451
ACGTTTAC | 0.00196
AATTAAAA | 0.0995
CATACACA | -0.234
TGTTTTAA | -0.0422
CGAATGGA | -0.00795
CGATATGC | 0.0903
GGTTCTAA | 0.154
CATTACAC | -0.128
CCTCTTTC | 0.0261
CAGTTTGG | -0.138
GCGTGAGC | -0.0394
GTCCACCA | -0.177
AGTAGTCC | 0.13
ACCACGAT | -0.31
GCTCGTGA | -0.108
AATTCTTC | 0.00684
CTCTAGTA | -0.18
